# Results reported in the supplement of paper PMC11417369.
# The other results are listed elsewhere or left out.
# Test system: PF3D7_0420300 AP2 domain 1 (GST-tagged)
# Experiment: gcPBM binding intensity (ln(normalized median fluorescence intensity)); higher = stronger DNA binding
# How it was run: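 Each value is the highest Masliner-normalised natural-log median intensity across replicate spots of either orientation of a probe. The probes were primer-extended double-stranded 36-bp intergenic genomic sequences on an Agilent 4 × 180k array, alongside negative controls, exposed for 1 h to GST-tagged P. falciparum DNA-binding domains expressed in E. coli. Bound protein was picked up with Alexa488 anti-GST antibody and scanned at 488 nm.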
row,Sequence,gcPBM binding intensity (ln)
1,ATTCAATATAAATACACACACACTTTTAATAATTAA [CACACA_site5963],9.95
2,CTAAACAAAAAATAATGTACACATACATAAAAAATA [XGTACX_site1808],9.35
3,TAATAATAATACCAGCGTACATTTTTCTTTCCTACG [XGTACX_site4056],9.27
4,TTCCTTAATCAATATTGTACTTTTTATAAATTTAGT [XGTACX_site3678],9.38
5,TCTGTGTTTTTGGGTACACACAAATAGCTTGTATAT [CACACA_site4002],9.72
6,TGAAAATTAATAAAAAGTACATAGTCAGATTTGTGA [XGTACX_site2450],9.23
7,TATTTTTTCTTAAACACACACATATATATATATAAT [CACACA_site5567],9.55
8,ATAAAATGTATATGAATGCACTTGAAGTTTTTTTTT,9.11
9,ATAAATCCATGGGTAGTGCGCATTTTTTTTTTTTTT [GTGCAC_site9732],9.56
10,TTAGTGTATTAATTCTCACACACTAAGAAAAAAAAA [CACACA_site3878],9.04
11,TCTCCTTGTTCCTTTTTTTTAAAAAAAAACATTAAA [CACACA_negctrl_site679],9.15
12,TATATGTGACATGAATGTACCCAAATTATATAAGAA [XGTACX_site3937],9.08
13,CATAGGAACATAAGTTGTACGCTATACATACAACAT [XGTACX_site1054],9.35
14,TATTCTTACACGTTTGCACACTAAAATATATATATA [CACACA_site435],9.37
15,ATTTAATATATTTATTGTACATATAAAATAAAAGAA [XGTACX_site2413],9.23
16,ATCAGTCGAGATGACAGTACACAGTAGCCAGGAAAT [XGTACX_site4932],9.37
17,TATGTAGATAAATAAGCACACACCAAACATATAAAA [CACACA_site1182],9.89
18,TATATATATTTAAAAAGTACAAAAAAAAAAAATGAA [XGTACX_site374],9.38
19,CCCTGAGCACTTTCGTGTACTAATAGTAACAATAAT [XGTACX_site1418],9.11

row,Sequence,gcPBM binding intensity (ln)
1,AATAATAAACACAATCAAATAAAATATGAAATATAA [GTGCAC_negctrl_site307],9.46
2,AAATGTTGAAATGATACACACATATAAATATAAATA [CACACA_site7229],9.55
3,AAACAAATGTATATGTGTACTTATTTTTTTGTATGT [XGTACX_site7134],9.32
4,ATAAAGAAAAGGAACACACAAATATGTAAATATGTA [CACACA_site6356],9.61
5,TTACACATAAATACCATATAAATATAATGCATATCT [CACACA_negctrl_site1731],9.3
6,AAAACATTATTCCATACACACCATACTTTTTAATAA [CACACA_site7326],9.46
7,TAAAATATTATCTACGCACACATTAAAATAAAAAAA [CACACA_site3709],9.3
8,CATTTGCACACGCACACACACATAAAAAGAAAAATA [CACACA_site6297],9.99
9,ACAATACAAATATATACACACATACATACATACATA [CACACA_site5699],9.69
10,TTAATTTGTAAATAATGTACATATAAATGGAAAGTA [XGTACX_site2743],9.4
11,TATTTATTAAAACACACACACACACCGACAAAATAA [CACACA_site4293],10.1
12,TAATAAAACATATATACACACATTATGTATACATAT [CACACA_site1703],9.52
13,TTAATATTTACAAAATGTACAGATTATTTATTGTTG [XGTACX_site1270],9.15
14,AAATATGTCAAATATACACACATAATAACTAGAATA [CACACA_site7151],9.63
15,TTTTTTAATATTTATACATGCATGCCGATTACTATA [TGCATGCA_site26],9.22
16,AATAATTATAATAAGGGTACGTATCTCACAGGAAAA [XGTACX_site4187],9.49
17,TAATAAATATATAATTGTACTTAAAAGAATATAAAA [XGTACX_site2928],9.1
18,AATATATACCAACATAAATATATATATATATATATA [TGCATGCA_negctrl_site334],9.36
19,AAGTGTATATAAAAATGTACATATTTCGATTTAAAT [XGTACX_site4161],9.32

row,Sequence,gcPBM binding intensity (ln)
1,ATATATATATATATATGTACATAATTAATAATTAGA [XGTACX_site5672],9.27
2,AGTTCGAATATATAAAGTACATAATTATATATTTGC [XGTACX_site2604],9.21
3,TCTATTAACTGATGTGCATGTTATAACCTAGAAGTA [TGCATGCA_site359],9.19
4,TAATATCATTTAGACACACACTCTTACAATATGTAA [CACACA_site5434],9.43
5,TTACACATATTATATATATATAAAAAAAAAAAATAT [CACACA_negctrl_site1684],9.35
6,ACCAATAATATACATACACACATAAAGGTTTATATA [CACACA_site315],9.66
7,AAAAATCGATACAAGCGTACAAAATAAAATAAAAAT [XGTACX_site5546],9.43
8,TATATATATATATGTATATATGTATATCTATATTTA [CACACA_negctrl_site131],9.01
9,TCTTATCCTACTTTTATTTTTACTTTTTTTTCTTAT [CACACA_negctrl_site111],9.69
10,TAAATTGAGTATATTACACACATATAAATATATTAT [CACACA_site4027],9.4
11,TGGATTCGTATATGTAGTACTATTTATATGTGATTT [XGTACX_site1581],9.48
12,ACTACATAATATTTACGTACCTAAAAAATTCTTATA [XGTACX_site509],9.08
13,TCTTGACTAAATATATGTACATATATTTTAATAATA [XGTACX_site701],9.13
14,TAAGTGCTTTTCAACTGTACCTTCCATTTATTTATT [XGTACX_site8589],9.34
15,GTATTCAAAAGTGAAACATGCAATAATATATATATA [TGCATGCA_site617],9.33
16,TTCTTATTTTATATTTCACACATTTTTACTATACTT [CACACA_site5817],9.77
17,AAAAAAAAAAAAAATACACACGTGAATGTATTGTTT [CACACA_site4856],9.36
18,ATACGTATTTATTTCACACACGTTAAAAAAATAAAA [CACACA_site6027],9.12
